From PubChem BioAssay (NCI)
More than one record can exist for a structure, and the calls need not agree.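 Each cell line was grown in a 96-well plate and treated with one concentration of compound for 48 hours. Values below 10 were considered active.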 A number of entries come with more than one value. This is not the full list of results. An entry can have further records. The screen tested this drug many times, at the concentration stated with the values; one value stands for one run. Counts like (3×) count equal records among those shown.

What was measured:
[1] = system: CCRF-CEM leukemia; assay: NCI-60 one-dose screen, 48 h (100 = growth as untreated, 0 = no growth, -100 = all killed); conditions: 25 µM
[2] = system: MOLT-4 leukemia; assay: as above; conditions: 0.25 µM

**Q.** Which growth ([1]; runs of 1998) does the source give for COc1cccc2c1C(=O)c1c(O)c3c(c(O)c1C2=O)C[C@@](O)(C(=O)CO)C[C@@H]3OC1CC(N)C(O)C(C)O1 (stereo not given in full) here?
**A.** active: -30.4, 2.75, -6.67, -42, -57, -7.43, -54.9, -11.5, -27.5, -17.1, -33.2, 0.323, -16.9, -39.1, -33.7, -41.4, -32.1, -40.9, -28% and inactive: 99.1, 24.9, 35.8, 34.9, 14.4, 70.4%

**Q.** What about the growth ([1]; runs of 1999) of the same compound?
**A.** inactive: 18.5%, 11.5%, 13.6% and active: -43.2, 8.41, -79.5, 7.88%

**Q.** And the growth ([1]; runs of 2000)?
**A.** active: -29.5, -100, 6.18, -87.3%

**Q.** What about the growth ([2]; runs of 2006) of the same compound?
**A.** active: 7.64%, -2.91%

**Q.** And the growth ([2]; runs of 2007)?
**A.** active: 5.26, -3.21, -41.3, -7.48, -5.99, 6.07, -14.3, -2.45, 1.7, 2.44, 4.38, -8.23, -1.96, 4.75, -2.78, -4.74, -19.5, 0.16, 2.06, -1.2, 6.34, 8.17, -5.37, 1.22, 9.88, 6.58, 0.324, 6.23% and inactive: 20.5 (3×), 18.5, 15.1, 13.9, 12.5, 11.8, 16.3, 50.1, 27.6, 24, 17, 14.8%

**Q.** And the growth ([2]; runs of 2008)?
**A.** inactive: 35.2, 12.5, 39.3, 36.4, 33, 84.4, 26.7, 23.4 (2×), 13.1, 60.7, 24.4, 27.4, 24.9, 16.3, 52.8, 13.3, 40.1, 58.6, 43.6, 47.6, 84.9, 11.6, 12, 15.2, 11.1 (2×), 35.8, 24.5, 22.8, 27.3, 20.2, 18.5, 46.7, 33.6% and active: -16, 1.6, 3.51, 6.53, -5.62, 0.968, -0.054, 1.88, 0.135, 3.42, 3.68, -9.84, -25.2, -20.4, -0.736, -12.2, -7.26, -6.42, -11, 7.88%

**Q.** And the growth ([2]; runs of 2009)?
**A.** active: 0.123, -0.75, 3.72, 6.09, -19.6, -12.3, 3.95, 5.66, 9.73, 3.92, 7.46, 4.03, 9.37, 9.28, 5.3, 8.72, 5.97% and inactive: 11, 12.6, 23.8, 18.6, 19.1 (2×), 35.3, 41.4, 15.2, 10.8, 16.6, 16 (2×), 11.9, 20.5 (4×), 22.7, 16.5 (3×), 22.1, 21.2 (2×), 32.9, 33.7, 11.8, 11.4, 17, 17.1, 24.8 (2×), 30.3, 19.5, 15.6, 20.9, 12.4, 14.1 (2×), 22.8, 20.6, 12.9, 15.1, 15.5, 17.4%

**Q.** And the growth ([2]; runs of 2010)?
**A.** inactive: 13.2, 16.4, 13.5, 11.7, 10.3, 25.1, 18.6, 21.8, 28.1, 20.7 (2×), 22.7, 19.1, 19.5 (2×), 18.9, 21.5 (2×), 20.2, 15.1, 12 (2×), 11, 11.9 (2×), 13.4, 14.1, 17.4, 10.1, 20.5, 21.1 (2×), 11.3, 21.2, 13.6, 24.7, 21.4, 15.2, 19.9, 20.9, 14.6% and active: 0.668, 5.28, 9.75, 0.241, 9.85, 8.41, -0.924%

**Q.** What about the growth ([2]; runs of 2011) of the same compound?
**A.** active: 1.97, 8.09, 8.62, 1.45, -32.1, 1.88, 7.32, -1.33, 7.95, 8.35, 4.81, 2.36, -0.141, -14.8, -4.19, -19.6, 4.72, -0.782, 2.6, -15.5% and inactive: 20.6, 14.8, 38.1, 10.1, 18.4, 19.2, 16.5 (2×), 11.4, 29.6, 12.6, 17.9 (2×), 20.7, 24.7, 32.2, 13.2, 13.9 (2×), 22.4, 12 (2×), 22.2, 17.2, 25.1, 30.8, 13.5, 18.5, 21.6, 11.9, 18.1, 16.3, 16.4, 12.9, 18.6, 13.3, 10.6, 10.2, 22.7, 15.8%

**Q.** What about the growth ([2]; runs of 2012) of the same compound?
**A.** inactive: 15.3, 18.6, 14.5, 11.8, 15.5, 12.7, 11.1, 14.1, 13.1, 18.4, 17.7 (2×), 18.1, 28.1, 20.9, 10.2, 25.8, 20.2, 21, 27.6, 19.9, 12.6, 20.7, 34.2, 11.4% and active: 4.05, -0.682, 7.43, 1.05, 1.36, 0.15, -10.1, -3.65, -7.87, -10.4, -14.2 (2×), -9.32, -13.3, -3.41, -12.9, -10 (2×), -11.9, -7.48, 6.94, 3.27, 0.589, 9.93, -7.39, 4.29, 6.32, -0.634, -0.306, -2.52, 2.66, 5.99, 8.08, 7.26, 4.7, 4.91, 0.0501, -4.81, 9.65, -26.5, -5.08, 4.71, 6.29, 1.69, 6.76, 2.79, -6.42%

**Q.** And the growth ([2]; runs of 2013)?
**A.** active: 5.04, 5.75, -3.28, 5.91, 5.94, 6.69, -8.02, -3.21, 5.56, 8.81, 3.5, -21.4, 7.51, 6.27, 9.17, 8.09, 8.53, 7.7, 6.67, 4.81, 3.9, 1.66, 1.3, 5.23, -11.2, 1.24, 0.784, 3.84, 8.87, 3.04, 4.42, 4.01, 7.83, 6.19, 9.18, 8.86, 8.94, 8.68, 8.97, 8.8, 9.65, 9.52, 8.02, 8.06, 0.25% and inactive: 13, 10, 11.8 (2×), 10.8 (2×), 11.6, 10.4, 18.1, 19.1, 12.9, 15.6, 13.9, 13.5, 11.5, 20.7, 13.6 (2×), 12.7, 17.4 (2×), 15.1, 11.9, 15.5, 17.5, 12, 21.3, 16.3%

**Q.** What about the growth ([2]; runs of 2014) of the same compound?
**A.** inactive: 14.7, 11.8 (2×), 17.6 (2×), 14.2 (3×), 10.8, 14 (2×), 17.1, 13.5 (2×), 17.2, 17.9 (2×), 17.4, 10.7 (2×), 14.6, 10.1 (2×), 14.3, 22.9, 15.6, 10.6, 11.7 (3×), 16.1, 18.9, 11.1, 12.6 (2×), 13.2, 13.6, 12.5, 16, 11.6, 10.3 (2×), 12, 12.2, 14.8 (2×), 12.9, 11.4, 18.2, 13.1, 26.2, 22.2% and active: 8.41, 3.07, -5.99, 7.12, 7.79, 3.26, 4.3, 2.55, 7.68, 7.86, 8.68, 7.05, 9.67, 8.67, 3.53, 1.09, 4.55, 4.99, 5.49, 5.93%

**Q.** What about the growth ([2]; runs of 2015) of the same compound?
**A.** inactive: 16.6 (2×), 16.4 (2×), 13.1, 21.6, 24.1 (2×), 15.6, 11.7, 18.8 (2×), 12 (3×), 33.9, 36.9, 10.2 (2×), 22.1, 17.4, 17.5, 20.3, 26, 13.4, 11.8, 10.3, 17.7, 17.6, 28.3, 27.3, 11.6, 12.6 (2×), 18.2, 20.6, 18.4 (2×), 13.5, 18.5, 18.9, 29 (2×), 31.5, 13.2, 11.3, 28.5, 17.9, 14.6% and active: 9.26, 8.83, 6.67, 6.63, 9.32, 9.28, 1.34, 2.83, 8.77, 8.15, 7.36, 9.82, 7.5, 9.31, 8.56, 8.71, 8.36, 9.87, 7.82, 8.75%

**Q.** And the growth ([2]; runs of 2016)?
**A.** inactive: 14.7 (2×), 11.1, 26.2, 13.3 (3×), 11.3 (2×), 11 (3×), 14.9 (2×), 16.3, 11.8 (2×), 10.7, 16.5, 20.1, 15.2, 18.1, 16, 10.2, 12, 13.4 (2×), 14.3, 18.6 (2×), 12.6, 14, 14.5, 17.9, 18.5, 11.6 (2×), 10.4, 21.4, 20.4, 19.5, 20.6, 13.2, 23.4, 24.9, 12.2 (2×), 16.4, 15.3, 13.6, 11.4% and active: 8.81, 9.16, 3.37, 8.25, 9.36, 9.96, 9.46, 8.66, 6.71, 9.79, 9.89%

**Q.** What about the growth ([2]; runs of 2017) of the same compound?
**A.** inactive: 12.9 (3×), 11.7 (2×), 10.4 (5×), 15.5, 12.2 (2×), 11.1 (5×), 14.3 (2×), 11.6 (3×), 13.4, 10, 17, 10.8, 12.4, 11.5, 17.9, 12.7 (2×), 14.2 (2×), 14.1, 14.9 (2×), 13.9, 13.1, 15.7, 16, 15.8, 11.3, 11.9, 18.6, 18.9% and active: 9.33, 9.53, 7.01, 6.15, 4.4, 9.89, 7.92, 9.35, 2.71, -5.05, 9.8, 9.25, 8.32, 6.62, 7.51, 8.33, 9.11, 6.24, 8.78, 9.75, 7.84, 9.28, 9.34, -2.61, 6.26, 9.29, 8.28, 9.05, 7.11%
